Reference: article PMC13022133
These are yes or no findings as the source states them, for the method shown. Binding seen in cells or lysates may run through a third protein. Where a sequence is shown, tags or fusion partners need not be part of it.

Biological target: T1, McIdas-HA (UniProt D6RGH6)
T1 sequence: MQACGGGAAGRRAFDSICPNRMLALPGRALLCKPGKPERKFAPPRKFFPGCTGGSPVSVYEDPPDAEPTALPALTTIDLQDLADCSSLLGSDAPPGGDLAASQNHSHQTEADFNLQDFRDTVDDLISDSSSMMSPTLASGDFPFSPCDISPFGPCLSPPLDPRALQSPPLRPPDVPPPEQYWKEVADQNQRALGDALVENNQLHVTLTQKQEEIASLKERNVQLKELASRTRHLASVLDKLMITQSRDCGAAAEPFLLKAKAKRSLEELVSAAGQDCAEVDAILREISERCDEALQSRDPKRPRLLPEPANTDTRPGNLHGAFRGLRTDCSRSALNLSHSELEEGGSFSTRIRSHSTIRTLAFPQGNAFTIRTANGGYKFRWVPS
Experiment: co-IP; HEK 293T cells co-transfected with HA-STIL and GFP-McIdas or GFP alone, or with SAS6-GFP (tetracycline-dependent promoter) and McIdas-HA or HA alone; IP with anti-HA on Protein A agarose

- binding: no binding
B1: HsSAS6-GFP (Spindle assembly abnormal protein 6 homolog) (protein, UniProt Q6UVJ0 1-657)
chain: MSQVLFHQLVPLQVKCKDCEERRVSIRMSIELQSVSNPVHRKDLVIRLTDDTDPFFLYNLVISEEDFQSLKFQQGLLVDFLAFPQKFIDLLQQCTQEHAKEIPRFLLQLVSPAAILDNSPAFLNVVETNPFKHLTHLSLKLLPGNDVEIKKFLAGCLKCSKEEKLSLMQSLDDATKQLDFTRKTLAEKKQELDKLRNEWASHTAALTNKHSQELTNEKEKALQAQVQYQQQHEQQKKDLEILHQQNIHQLQNRLSELEAANKDLTERKYKGDSTIRELKAKLSGVEEELQRTKQEVLSLRRENSTLDVECHEKEKHVNQLQTKVAVLEQEIKDKDQLVLRTKEAFDTIQEQKVVLEENGEKNQVQLGKLEATIKSLSAELLKANEIIKKLQGDLKTLMGKLKLKNTVTIQQEKLLAEKEEKLQKEQKELQDVGQSLRIKEQEVCKLQEQLEATVKKLEESKQLLKNNEKLITWLNKELNENQLVRKQDVLGPSTTPPAHSSSNTIRSGISPNLNVVDGRLTYPTCGIGYPVSSAFAFQNTFPHSISAKNTSHPGSGTKVQFNLQFTKPNASLGDVQSGATISMPCSTDKENGENVGLESKYLKKREDSIPLRGLSQNLFSNSDHQRDGTLGALHTSSKPTALPSASSAYFPGQLPNS
